Measured values taken from CN109897111A (HANGZHOU HANSI BIOLOGICAL MEDICINE CO LTD, dated 2019).

Tests used:
hPD-1-hIgGFc抗原 = hPD-1-hIgGFc抗原 (human, UniProt Q15116 partial chain, limits assumed); assay: competition ELISA, hPD-1-hIgGFc coated, competitor PDL1-mIgG2aFc 0.6 μg/ml
CD47抗原 (人CD47) [1] = target: T1, CD47抗原 (人CD47) (human, UniProt Q08722 partial chain, limits assumed); assay: competition ELISA, CD47 coated, competitor SIRPA-his tag 0.6 μg/ml
T1 construct: construct not described

hPD-1-his抗原 = hPD-1-his抗原 (human, UniProt Q15116 partial chain, limits assumed); assay: ELISA, hPD-1-his coated 0.25 μg/ml
hPD-1-his抗原, sequence (Q15116 25-167 limits assumed): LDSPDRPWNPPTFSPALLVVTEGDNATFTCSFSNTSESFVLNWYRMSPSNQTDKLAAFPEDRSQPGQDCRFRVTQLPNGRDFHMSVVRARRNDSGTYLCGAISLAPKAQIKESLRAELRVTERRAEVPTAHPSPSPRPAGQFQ

CD47抗原 (人CD47) [2] = target: T1, CD47抗原 (人CD47); assay: ELISA, CD47 coated 0.25 μg/ml
T1 sequence (Q08722 19-139 limits assumed): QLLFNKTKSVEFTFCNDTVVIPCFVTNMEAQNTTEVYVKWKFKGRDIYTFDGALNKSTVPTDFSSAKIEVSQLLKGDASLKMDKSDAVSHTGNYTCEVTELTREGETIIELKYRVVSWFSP

hPD-1-hIgGFc抗原, sequence (Q15116 25-167 limits assumed): as the sequence (Q15116 25-167 limits assumed) above

- IC50 (hPD-1-hIgGFc抗原): 1.5 nM
- IC50 (CD47抗原 (人CD47) [1]): 21 nM
- EC50 (hPD-1-his抗原): 0.05 nM
- EC50 (CD47抗原 (人CD47) [2]): 0.6 nM
B1: 双特异性抗体HX009-5 (抗PD-1/CD47) (bispecific antibody, human IgG4 S228P, kappa)
heavy: EVQLVQSGGGLVQPGGSLKLSCAASGFTFSSYGMSWVRQAPGKGLDWVATISGGGRDTYYPDSVKGRFTISRDNSKNNLYLQMNSLRAEDTALYYCARQKGEAWFAYWGQGTLVTVSAASTKGPSVFPLAPCSRSTSESTAALGCLVKDYFPEPVTVSWNSGALTSGVHTFPAVLQSSGLYSLSSVVTVPSSSLGTKTYTCNVDHKPSNTKVDKRV[human IgG4 Fc with S228P (EU numbers) not listed]GGGGSGGGGSERGETGPEE[about 120 residues not listed]
light: DIVLTQSPASLAVSPGQRATITCRASESVDNYGISFMNWFQQKPGQPPKLLIYAASNKGTGVPARFSGSGSGTDFTLNINPMEEEDTAMYFCQQSKEVPWTFGGGTKLEIKRTVAAPSVFIFPPSDEQLKSGTASVVCLLNNFYPREAKVQWKVDNALQSGNSQESVTEQDSKDSTYSLSSTLTLSKADYEKHKVYACEVTHQGLSSPVTKSFNRGEC
notes: expressed in 293 cells
